Test results as given in patent US20220273789A1.

Legend:
human IgG (human) [1] = experiment: BLI Octet, construct on Ni-NTA sensor, hIgG in solution
human IgG (human) [2] = experiment: BLI (Octet), gEgI on Ni-NTA sensor, hIgG in solution

Q: How did the Kd (human IgG (human) [1]) turn out when “Non mutated HSV2 gEgI (HRV4) (from UniProt P89475 21-416; P06764 21-256) (receptor)” was run?
A: 262, 258, 163, 177 nM [lines of one column]

Q: What about the Response (nm) (human IgG (human) [1]) of the same substance?
A: 0.732, 0.751, 0.831, 0.796 nm [lines of one column]

Q: And the koff (human IgG (human) [1])?
A: 0.00428, 0.00432, 0.00303, 0.00326 s⁻¹ [lines of one column]

Q: “Non mutated gEgI (HRV4) (from UniProt P89475 21-416; P06764 21-256) (receptor)” was tested. Which kon (human IgG (human) [2]) did it give?
A: 15900, 17600, 19300, 19500 M⁻¹ s⁻¹ [lines of one column]

Certain results were filed several times, with different values. This is not the full list of results. The source may hold further records. Values that stand side by side seem to repeat one measurement; a mean can stand among them.
